{"source": "PubChem BioAssay AID686978", "about": "(National Center for Advancing Translational Sciences (NCATS), 2013)", "note": "Where “and” joins values, the source holds several entries; their conditions need not be identical. Equal values may be shown once. Out of some 420,000 compounds screened, about 64,000 (15%) were called active. This list was built around the results that the source calls inconclusive (neither active nor inactive); the mix of calls is not that of the screen. The call rests on the fitted dose curve; in most records, active means well fitted inhibition curve with a large enough effect; inconclusive means small, poorly fitted or top-dose-only effect; inactive means flat fitted curve, though single readings scatter. Potencies of inconclusive entries are left out as doubtful fits. More than one record can exist for a structure, and the calls need not agree. On the % scale 0 is the no-effect control and ±100 the full control effect; potency means the concentration at half of the fitted maximal effect; tags describe the fitted curve by direction and shape.", "data": [{"assay": "qHTS for Inhibitors of human tyrosyl-DNA phosphodiesterase 1 (TDP1): qHTS in cells in absence of CPT; further: nearly all actives have a fitted effect of over 55% in size", "details": "DT40 Tdp1-/- hTDP1 cells, no CPT, ATP luminescence, 48 h; activity change, negative = growth inhibition: at 46.2 µM (top of the series)", "in_short": "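A cellular qHTS used chicken DT40 cells lacking endogenous Tdp1 but carrying stably transfected human TDP1. Compounds were applied without camptothecin, and cell growth kinetics were judged by ATP-dependent luminescence after ≥48 hr.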", "values": [{"smiles": "COc1cc(NC(=O)N2CCC3(CC2)Nc2ccccc2-n2cccc23)cc(OC)c1OC", "Potency": "inconclusive [inhibitor, single point]"}, {"smiles": "COc1ccc(C(=O)N/C(=C\\c2ccco2)C(=O)NCc2cccnc2)cc1", "Potency": "inactive"}, {"smiles": "Cc1nsc(Nc2ccc([N+](=O)[O-])cc2)c1C#N", "Potency": "active: 2.31 µM"}, {"smiles": "COc1ccccc1C(=O)Nc1ccc2c(c1)OCCO2", "Potency": "inconclusive [inhibitor, single point]"}, {"smiles": "COc1ccc2[nH]c(C)c(C(=O)CN3CCN(C(=O)c4ccco4)CC3)c2c1", "Potency": "inactive"}, {"smiles": "CCC1CN(CC(=O)NC(C)c2cn(C)nc2C)Cc2cc(OC)ccc2O1", "note": "(centres undefined)", "Potency": "inactive"}, {"smiles": "Cc1cc(C)cc(NC(=O)N2CCN(S(C)(=O)=O)CC2)c1", "Potency": "inactive"}, {"smiles": "O=C(c1cc(COc2ccc(F)cc2Cl)on1)N1CCCCC1c1cccnc1", "note": "(centres undefined)", "Potency": "active: 13 µM"}, {"smiles": "Cc1c(O)ccc(/C=N/Nc2ncccc2[N+](=O)[O-])c1O", "Potency": "inconclusive [inhibitor, single point]"}, {"smiles": "CC(=O)Nc1ccc(S(=O)(=O)N(Cc2ccco2)CC2CCCO2)cc1", "note": "(centres undefined)", "Potency": "inconclusive [inhibitor, single point]"}, {"smiles": "O=C(NNC(=S)NCc1ccco1)c1ccccc1Br", "Potency": "inconclusive [inhibitor, single point]"}, {"smiles": "Cc1cccc(NC(=O)c2ccc(S(=O)(=O)N3CCCCC3)cc2)c1", "Potency": "inactive"}, {"smiles": "O=C(Nc1ccc(F)c(Cl)c1)c1cc(-c2ccco2)on1", "activity change, negative = growth inhibition": "inconclusive: -33.3% [inhibitor]"}, {"smiles": "Cc1noc(C)c1COc1cccc(C(=O)NCCc2c[nH]c3ccccc23)c1", "Potency": "active: 20.6 µM"}, {"smiles": "c1ccc(-n2nnnc2NCCCN2CCOCC2)cc1", "Potency": "inactive"}, {"smiles": "COc1ccc(/C=C/c2cc(O)cc(OC3OC(CO)C(O)C(O)C3O)c2)cc1", "note": "(centres undefined)", "Potency": "inactive"}, {"smiles": "COc1ccc(C2CCCN2C(=S)Nc2ccc(C)cc2Cl)cc1OC", "note": "(centres undefined)", "Potency": "active: 16.4 µM"}, {"smiles": "C=Cc1ccc(S(=O)(=O)O)cc1", "Potency": "inactive"}, {"smiles": "FC(F)(F)c1nc(SCc2ccccc2)n[nH]1", "Potency": "inconclusive [inhibitor, single point]"}, {"smiles": "O=C(COc1ccc2ccccc2c1)NC1CC(=O)N(c2ccccc2)C1", "note": "(centres undefined)", "Potency": "inactive"}, {"smiles": "Cc1cc(C)c(S(=O)(=O)N2CCN(c3ccccc3)CC2)c(C)c1", "Potency": "inconclusive [inhibitor, single point]"}, {"smiles": "O=C(CSc1c2c(nc3cc(Cl)ccc13)CCCC2)N1CCN(c2ccccc2F)CC1", "Potency": "active: 6.51 µM"}, {"smiles": "O=C(CSc1ccc(-c2ccccn2)nn1)c1ccc([N+](=O)[O-])cc1", "Potency": "inconclusive [inhibitor, single point]"}, {"smiles": "O=c1[nH]c2cc3c(cc2cc1CN(Cc1nnnn1CC1CCCO1)C1CCCCC1)OCO3", "note": "(centres undefined)", "Potency": "inconclusive [inhibitor, single point]"}, {"smiles": "COc1ccc(C(=O)NCc2n[nH]c(=S)n2-c2ccccc2)cc1OC", "Potency": "inconclusive [inhibitor, full curve, poor fit]"}, {"smiles": "CCOC(=O)c1c(C)oc2c1c(CN1CCN(CCO)CC1)c(O)c1ccccc12", "Potency": "inconclusive [inhibitor, single point]"}, {"smiles": "CCOC(=O)c1c(C)cc2c(CO)n[nH]c(=O)c2c1C", "Potency": "inconclusive [inhibitor, partial curve]"}, {"smiles": "Cn1cccc1-c1nc2ccccc2n1Cc1ccccc1", "Potency": "inconclusive [inhibitor, partial curve, poor fit]"}, {"smiles": "CC1CC(C)CN(C(=O)c2ccncc2)C1", "note": "(centres undefined)", "Potency": "inactive"}, {"smiles": "O=C(NCCc1ccc(Cl)cc1)C1COc2ccccc2C1", "note": "(centres undefined)", "Potency": "inactive"}, {"smiles": "COc1ccc(Cl)cc1NC(=O)CN(C)C(=O)c1ccc(N2CCCCCC2)c([N+](=O)[O-])c1", "Potency": "active: 23.1 µM"}, {"smiles": "COc1ccc(-n2nc3ccc(N)cc3n2)cc1", "Potency": "inconclusive [inhibitor, single point]"}, {"smiles": "O=C(C(=O)N1CCN(c2ccccc2F)CC1)c1cn(CC(=O)N2CCOCC2)c2ccccc12", "Potency": "inconclusive [inhibitor, single point]"}, {"smiles": "CC(C)(C)c1cc(O)c(C(C)(C)C)cc1O", "Potency": "inactive and active: 11.9 µM"}, {"smiles": "CC(=O)OCc1ccc(C2=CC(=O)CC(C)(C)C2=O)cc1", "Potency": "inactive"}, {"smiles": "CN(C)CCCNc1cn[nH]c(=O)c1Cl", "Potency": "inactive"}, {"smiles": "CC(C)C[C@H]1CNC(=S)N1C[C@H]1CCCN1C[C@H](Cc1ccccc1)N1C[C@H](Cc2ccc(O)cc2)N(CCc2ccccc2)C1=S", "Potency": "active: 13 µM"}, {"smiles": "Cn1cnc2c(=O)sc3ccccc3c21", "Potency": "inconclusive [inhibitor, single point]"}, {"smiles": "COc1ccc(OC)c(NC(=O)CN(C)S(=O)(=O)c2ccc3nc(C)sc3c2)c1", "Potency": "inconclusive [inhibitor, single point]"}, {"smiles": "CCOC(=O)c1ccc(NC(=O)c2cn(-c3ccccc3)nc2-c2ccc(OC)c(OC)c2)cc1", "Potency": "inconclusive [inhibitor, single point]"}, {"smiles": "CCOC(=O)N1CCC(N2C(=O)c3ccccc3C2Nc2cc(C(=O)OC)cc(C(=O)OC)c2)CC1", "note": "(centres undefined)", "Potency": "inconclusive [inhibitor, single point]"}, {"smiles": "CC1=C(C(=O)OC(C)C)C(c2ccccc2Cl)CC(=O)N1", "note": "(centres undefined)", "Potency": "active: 11.6 µM"}, {"smiles": "CCC1=Nc2cc(C(=O)NCc3ccco3)ccc2Sc2ccc(Cl)cc21", "Potency": "active: 1.03 µM"}, {"smiles": "O=C(O)c1cc(Sc2ccc(Br)cc2)nc2ccccc12", "Potency": "inconclusive [inhibitor, single point]"}, {"smiles": "COc1ccc2c(Sc3ccc(Cl)cc3)c(C(=O)N3CCC(C)CC3)[nH]c2c1", "Potency": "inconclusive [inhibitor, single point]"}, {"smiles": "COc1cc(CC(=O)Nc2ccc(Cl)c(C(F)(F)F)c2)cc(OC)c1OC", "Potency": "inconclusive [inhibitor, single point]"}, {"smiles": "CC1(C)Cc2c(sc3[nH]c(=S)n(Cc4ccccc4)c(=O)c23)CO1", "Potency": "inconclusive [inhibitor, single point]"}, {"smiles": "c1ccc(CNCc2ccc3c(c2)OCO3)nc1", "Potency": "inactive"}, {"smiles": "Cc1ccc(S(=O)(=O)c2nc(-c3cccs3)oc2SC(C)C)cc1", "Potency": "inconclusive [inhibitor, single point]"}, {"smiles": "N#Cc1ccccc1NC(=O)C(=O)NCCc1csc(-c2ccc(F)cc2)n1", "Potency": "inconclusive [inhibitor, single point]"}, {"smiles": "CCCCc1ccc(/C=C(\\C#N)C(N)=S)s1", "Potency": "inconclusive [inhibitor, single point]"}, {"smiles": "COCCn1c(=N)c(S(=O)(=O)c2ccc(F)cc2)cc2c(=O)n3cccc(C)c3nc21", "Potency": "active: 8.2 µM"}, {"smiles": "COc1ccccc1-c1cccc([C@@H]2C[C@H]3[C@H](CON3C)CN2C(=O)CCc2ccccc2)c1", "Potency": "inconclusive [inhibitor, single point]"}, {"smiles": "c1ccc(-c2cn(-c3ccccc3)c3ncnc(NCCCN4CCOCC4)c23)cc1", "Potency": "inconclusive [inhibitor, single point]"}, {"smiles": "O=C(C[C@@H]1C/C=C\\CC[C@@H](Cc2ccc(F)cc2)C(=O)OC[C@@H]2CCCN2C1=O)NCCO", "Potency": "inconclusive [inhibitor, partial curve]"}, {"smiles": "Nc1nc(Nc2ccccc2Cl)cc(=O)[nH]1", "Potency": "inconclusive [inhibitor, full curve]"}, {"smiles": "Cc1csc(NC(=O)CSc2ccc3nnc(-c4ccncc4)n3n2)n1", "Potency": "inconclusive [inhibitor, partial curve]"}, {"smiles": "COCC1CCN(C(=O)c2cc(COc3ccc(F)cc3F)on2)C1", "note": "(centres undefined)", "Potency": "inconclusive [inhibitor, single point]"}, {"smiles": "CC(C)c1ccc(NC(=O)CSc2n[nH]c(=O)n2C2CC2)cc1", "Potency": "inactive"}, {"smiles": "CCOC(=O)c1c(C)oc2nc(C)nc(NCc3cccc(Cl)c3)c12", "Potency": "active: 20.6 µM"}, {"smiles": "COc1cc(NS(=O)(=O)c2ccc(C)cc2)c2ncccc2c1", "Potency": "active: 1.16 µM"}, {"smiles": "COc1cc(C(=O)N/N=c2/sc3ccccc3n2C)cc(OC)c1OC", "Potency": "inconclusive [inhibitor, single point]"}, {"smiles": "CN1CCN(c2nc(-c3ccc(C(C)(C)C)cc3)nc3ccccc23)CC1", "Potency": "active: 20.6 µM"}, {"smiles": "CN1C(=O)C2C(c3ccc(N(C)C)cc3)=NN(Cc3ccccc3)C2C1=O", "note": "(centres undefined)", "Potency": "inactive"}, {"smiles": "O=c1cc(-c2ccccc2Cl)oc2c(Br)ccc(O)c12", "Potency": "inconclusive [inhibitor, single point]"}, {"smiles": "CCOC(=O)c1nc(Nc2ccc(C(=O)OC)cc2)c2ccccc2n1", "Potency": "active: 8.2 µM and active: 20.6 µM"}, {"smiles": "Cc1nc(NC(=S)NC(=O)c2cncc(Br)c2)ccc1Br", "Potency": "inconclusive [inhibitor, single point]"}, {"smiles": "CN1CCN(CCC(=O)Nc2ccc(Br)cc2)CC1", "Potency": "inactive"}, {"smiles": "Cc1ccc2cc(CN(CC(C)C)C(=O)C3CCCO3)c(=O)[nH]c2c1", "note": "(centres undefined)", "Potency": "inactive"}, {"smiles": "COc1ccccc1N1CCN(C2CCN(C(=O)c3cccc(F)c3)CC2)CC1", "Potency": "inactive"}, {"smiles": "Cc1ccc2c(c1)N(CC(=O)c1cccc(Cl)c1)C(=O)C(C)O2", "note": "(centres undefined)", "Potency": "inconclusive [inhibitor, partial curve]"}, {"smiles": "COC(=O)c1ccc(NS(=O)(=O)c2cc(C)ccc2OC)cc1", "Potency": "inconclusive [inhibitor, partial curve]"}, {"smiles": "Cc1ccsc1C(=O)OCC(=O)N1CCN(c2ccccc2)CC1", "Potency": "inconclusive [inhibitor, single point]"}, {"smiles": "CN1CCN(C(=S)SCC(=O)Nc2nc(-c3ccccc3)c(-c3ccccc3)o2)CC1", "activity change, negative = growth inhibition": "inconclusive: -32.7% [inhibitor]"}]}]}
